The campaign covered roughly 110,000 compounds. About 230 (0.21%) showed an effect of 50% or more. Some of the results follow.
Target: DPAP1 (Plasmodium falciparum, UniProt Q8IIJ9)
Assay: primary screen, percent inhibition; read by cleavage of a fluorogenic dipeptide substrate; higher = more effect of the substance
Set-up: species or system P. falciparum D10 trophozoite lysates; single well
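Also: 30 min substrate incubation versus DMSO and 10 µM JCP410 controls.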

DPAP1, sequence (Q8IIJ9 whole entry, looked up): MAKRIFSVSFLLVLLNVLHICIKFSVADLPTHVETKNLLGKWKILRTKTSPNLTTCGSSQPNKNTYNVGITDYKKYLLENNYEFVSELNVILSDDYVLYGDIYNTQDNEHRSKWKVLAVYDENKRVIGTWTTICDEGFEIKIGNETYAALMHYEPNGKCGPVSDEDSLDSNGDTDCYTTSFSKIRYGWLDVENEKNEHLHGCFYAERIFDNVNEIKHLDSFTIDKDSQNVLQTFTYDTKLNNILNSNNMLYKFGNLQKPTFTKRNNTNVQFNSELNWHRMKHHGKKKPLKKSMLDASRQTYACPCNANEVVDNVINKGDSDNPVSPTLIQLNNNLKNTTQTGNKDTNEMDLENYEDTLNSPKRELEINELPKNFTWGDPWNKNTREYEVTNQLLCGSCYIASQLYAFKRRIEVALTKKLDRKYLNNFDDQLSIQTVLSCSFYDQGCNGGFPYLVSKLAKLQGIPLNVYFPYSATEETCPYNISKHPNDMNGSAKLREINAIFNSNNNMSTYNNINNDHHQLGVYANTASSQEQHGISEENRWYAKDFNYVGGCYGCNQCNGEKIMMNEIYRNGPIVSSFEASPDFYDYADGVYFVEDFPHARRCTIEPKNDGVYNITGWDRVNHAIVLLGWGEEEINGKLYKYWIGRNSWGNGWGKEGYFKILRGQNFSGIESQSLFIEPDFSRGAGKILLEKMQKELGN

| SMILES | % Inhibition @ 10 uM [%] |
| --- | --- |
| O=C(c1ccc(Cl)c([N+](=O)[O-])c1)N1CCCc2ccccc21 | -2.6 |
| O=C(NCc1cccc(CNC(=O)c2cccnc2)c1)c1cccnc1 | 2.03 |
| Cc1ccc(C)n1-c1ccc(C(=O)N2CCN(c3ccc(N4CCOCC4)nn3)CC2)cc1 | -1.7 |
| COc1ccc(C(NS(=O)(=O)c2ccc3ccccc3c2)c2ccccc2)cc1 (stereo not drawn) | 2.7 |
| CC(=O)C1=C(Nc2ccc(C)cc2)CC(C)(O)C(C(C)=O)C1c1ccccc1 (stereo not drawn) | 0.266 |
| Cc1ccc(-c2onc(C)c2C)cc1S(=O)(=O)N1CCC2(CC1)OCCO2 | -6.86 |
| Cc1ccc(S(=O)(=O)N2CCN(C(=O)CN3CCCCC3)C2)cc1 | -2.8 |
| Oc1ncnc2c1cnn2-c1cccc(Cl)c1 | 0.177 |
| O=C(CC1NC2CCCCC2NC1=O)Nc1ccccc1 (stereo not drawn) | 2.13 |
| CC(C)(C)c1cc(N)n(-c2ccc(C(=O)O)cc2)n1 | 0.0539 |
| CCCc1cc(O)nc(SCC(=O)Nc2ccc(OCC)cc2)n1 | -0.865 |
| COc1cc2c(cc1OC)CN(C(=O)C(F)(F)F)CC2 | -2.75 |
| CCN(CC)c1nc2ccccc2c(O)c1C | 4.67 |
| COc1ccccc1CNC(=O)CSc1ccc(-c2cccs2)nn1 | 3.8 |
| COc1ccc(CNC(=O)CN(C)S(=O)(=O)c2ccc3[nH]c(-c4ccccc4)nc3c2)cc1 | -3.17 |
| CC(C)(C)c1ccc(C2CC(=O)NC3=C2C(=O)CCC3)cc1 (stereo not drawn) | 6.82 |
| Cc1cc(C)n(-c2cc(C(F)(F)F)nc(-c3ccccc3)n2)n1 | -1.48 |
| Cc1sc2ncn(CC(=O)N3CCCC3)c(=O)c2c1-c1ccc(Br)cc1 | -5.3 |
| CCOC(=O)C1CCN(c2nc(C)cnc2C)CC1 | 2.16 |
| COC(=O)c1ccc(-c2ccco2)n1CC(=O)N1CCN(Cc2ccc3c(c2)OCO3)CC1 | -0.495 |
| Cc1cc(O)n2c(C)nnc2n1 | 0.0289 |
| O=C(Nc1cc(-c2cccc(Cl)c2)no1)c1cc2c(s1)-c1ccccc1S(=O)(=O)C2 | -2.45 |
| COC(=O)c1cc2ccccc2[nH]1 | -1.99 |
| Cc1ccc(NC(=O)C23CC4CC(C2)CC(n2cnc(Br)n2)(C4)C3)cc1C | 7.46 |
| OC(COc1ccc(F)cc1)CN1CCN(Cc2ccc(Cl)cc2)CC1 (stereo not drawn) | -5.06 |
| O=S(=O)(Nc1ccc(S(=O)(=O)N2CCCCC2)cc1)c1ccc(Br)s1 | 3.5 |

| SMILES | % Inhibition @ 10 uM [%] |
| --- | --- |
| Cc1cccc(-n2nnc(C(=O)NC3CCCc4ccccc43)c2N)c1 (stereo not drawn) | 8.15 |
| O=C(Nc1ccon1)c1ccc(OC2CCCC2)cc1 | -5.81 |
| COc1ccc2c(c1)c(=O)oc1cc(OCc3ccc(F)cc3)ccc12 | 1.84 |
| Cc1cc(NCc2ccc(F)cc2)n2cnnc2n1 | -2.57 |
| O=S(=O)(c1ccc(F)cc1)N(Cc1ccccc1)Cc1ccccc1 | 2.22 |
| COc1ccc(Br)cc1CNCc1cccc(OC)c1OC | 1.15 |
| Cc1ccc(OCc2nc(-c3ccc(C(=O)N4CCC5(CC4)OCCO5)cc3)oc2C)cc1 | 3.47 |
| CCc1ccc(CNC(=O)C2CCN(S(=O)(=O)N3CCC(C)CC3)CC2)cc1 | -3.12 |
| O=CNCC(=O)NC1CCCCCC1 | 3.66 |
| Cc1ccc(OCC(=O)Nc2ccccc2C)cc1 | 6.37 |
| Cc1cccc(N2C(=O)CC(N3CCN(c4cccc(Cl)c4)CC3)C2=O)c1 (stereo not drawn) | 6.74 |
| O=C(NCCNC1=NS(=O)(=O)c2ccccc21)c1ccc(S(=O)(=O)N2CCOCC2)cc1 | -7 |
| COc1ccc(Oc2nc3c(c(=O)n(Cc4ccccc4)c(=O)n3C)n2C)cc1 | 1.97 |
| O=C(CCc1cn(Cc2ccccc2Cl)c2ccccc12)NCC1CCCO1 (stereo not drawn) | 0.857 |
| CCOC(=O)c1[nH]cnc1C(=O)N1CCOCC1 | -1.37 |
| O=C(O)COc1ccc(/C=C2/NC(=O)N(Cc3ccccc3F)C2=O)cc1 | 1.63 |
| Clc1ccccc1CN1C2=NCCCN2c2ccccc21 | -3.74 |
| CCOc1ccc(C2c3c(oc4ccc(F)cc4c3=O)C(=O)N2c2nc(C)c(C(=O)OC)s2)cc1 (stereo not drawn) | -3.13 |
| CCCC1CCC(c2ccc(-c3noc(-c4ccc(OC(F)F)cc4)n3)cc2)CC1 (stereo not drawn) | -6.07 |
| CC(C)C[C@H](NC(=O)OCc1ccccc1)C(=O)N[C@H]1CCOC1(O)c1nc2ccccc2o1 (stereo partly drawn) | 1.35 |
| CC(C)Cc1ccc(S(=O)(=O)Nc2noc3ccccc23)cc1 | -2.85 |
| Cc1ccc(NC(=O)C2CCC(C)(C(=O)O)C2(C)C)cc1C (stereo not drawn) | -4.01 |
| Cc1[nH]c2ccc(C(=O)NCc3cccnc3)cc2c1C | -2.65 |
| COC(=O)c1c(NC(=O)c2cccc(Cn3nc(C)c(Cl)c3C)c2)sc2c1CCC2 | 0.413 |
| Cc1ccc(C(=O)N2N=C(c3ccccc3)CC2c2ccccc2)cc1 (stereo not drawn) | 4.97 |
| CC(C)(C)n1cnc2cc(NC(=O)c3ccco3)ccc21 | 0.13 |

| SMILES | % Inhibition @ 10 uM [%] |
| --- | --- |
| CCc1c(CN(CC)Cc2ccccc2)csc1C | 0.951 |
| CCC(=O)Nc1ccccc1C(=O)N1CCCC1 | -7.9 |
| Cc1nc2c(c(C)c1CCC(=O)NCCC(C)C)c(=O)n(C)c(=O)n2C | -6.91 |
| CCCCOc1ccccc1C1NC(=O)NC(C)=C1C(=O)OCc1ccco1 (stereo not drawn) | -5.5 |
| CCOc1ccc(CN2CCNC(=O)C2CC(=O)O)cc1 (stereo not drawn) | 2.31 |
| COc1ccc(-c2nc3c4cnn(-c5c(F)c(F)cc(F)c5F)c4ncn3n2)cc1 | 0.569 |
| Cc1ccc(C)c(S(=O)(=O)c2nnn3c2nc(N)c2sccc23)c1 | -6.51 |
| Cc1ccccc1C(=O)Nc1ccc(S(=O)(=O)N2CCC(C)CC2)cc1 | 1.79 |
| CN(CC(=O)c1ccc2cc[nH]c2c1)Cc1ccccc1 | 3.96 |
| COc1cc(-c2cc(C(=O)O)c3c(-c4ccc(Cl)cc4)[nH]nc3n2)cc(OC)c1OC | -1.78 |
| CC(C)(C)NC(=O)c1cccc2c1OC(C)(C)C2 | -1.09 |
| O=C(O)CCCC(=O)/N=C1\SC2CS(=O)(=O)CC2N1Cc1ccc(Cl)cc1 (stereo not drawn) | -2.92 |
| CCN1CCC(NC(C)CCCC(C)(C)O)CC1 (stereo not drawn) | -1.81 |
| CCC(C)NC(=O)c1cc(-c2ccc(C)o2)nc2ccccc12 (stereo not drawn) | 1.1 |
| CCc1nnc(NS(=O)(=O)c2ccc(NC(=O)C34CC5CC(CC(C5)C3)C4)cc2)s1 | -0.424 |
| O=C1CC(Cc2ccccc2)C(=O)N1CCCn1ccnc1 (stereo not drawn) | -1.52 |
| COc1cc(C)c(Cl)c(C)c1S(=O)(=O)N1CCOCC1 | 0.145 |
| N#Cc1sc2nc(C3CC3)cc(-c3ccc(F)cc3)c2c1N | -0.736 |
| CCOc1ccc(Cl)cc1S(=O)(=O)N1CCCCC1 | 1 |
| COc1ccc(Cn2c(CCC(=O)NCCC3=CCCCC3)nc3ncccc3c2=O)cc1 | -4.24 |
| O=C1OC(c2ccc3c(c2)OCO3)=N/C1=C\c1ccccc1 | -0.48 |
| Cc1nc2ccccc2n1/N=C/c1cccnc1 | -3.21 |
| COc1ccc(-c2nc(C)c(C(C)=O)n2O)cc1OC | -3.96 |
| Cc1ccc(N2CC(C(=O)NCc3cccs3)CC2=O)cc1C (stereo not drawn) | 3.56 |
| CCC1CCCCN1C(=O)c1cc2nc(-c3ccccc3)cc(C(F)(F)F)n2n1 (stereo not drawn) | -4.03 |
| COc1cccc(N(CC(=O)N2CCN(c3ccc(F)cc3)CC2)S(=O)(=O)c2ccccc2)c1 | 1.25 |

| SMILES | % Inhibition @ 10 uM [%] |
| --- | --- |
| CCOc1ccccc1N1C(=O)C2C3C=C(Cl)C(c4ccccc43)C2C1=O (stereo not drawn) | 0.983 |
| O=c1cc(-c2ccccc2)c2cc(Cl)c3c(c2o1)CN(Cc1ccco1)CO3 | -0.808 |
| O=C(Nc1ccn(-c2ccccc2)n1)c1ccco1 | -1.05 |
| C/C(=N\O)c1nsc(Nc2ccccc2)n1 | 3.96 |
| CC(NC(=O)C1CCN(c2nnc(-n3cccc3)s2)CC1)c1ccccc1 (stereo not drawn) | -0.522 |
| COc1ccc(CN2CCN(c3ccccc3C)CC2)cc1Br | -5.41 |
| O=c1c2cnn(-c3ccccc3)c2ncn1Cc1cccc(C(F)(F)F)c1 | -1.75 |
| CC(C)(C)c1ccc(C(=O)Nc2cccc3ccccc23)cc1 | -3.66 |
| CC(=O)N(Cc1ccccc1)C(c1ccccc1)c1ccccc1 | 1.83 |
| COc1ccc(C(CC(=O)O)NC(=O)c2ccccc2Cl)cc1OC (stereo not drawn) | -3.27 |
| COC(=O)c1ccc(CN2CCC(O)CC2)cc1 | -1.78 |
| Cc1ccc(NC(=O)C2CCN(S(=O)(=O)c3ccc4[nH]c5c(c4c3)CCCCC5)CC2)nc1 | 1.67 |
| CCN1CCN(C(=O)C2CCN(C(=O)c3cc4sccc4n3CC)CC2)CC1 | 1.8 |
| O=C(CCNc1c(N2CCCC2)c(=O)c1=O)NCc1ccc(Cl)cc1 | -1.72 |
| Cc1cccc(C(=O)NCCNC(=O)c2cccc(C)c2)c1 | -4.71 |
| OCCSc1nc2ccccc2s1 | -1.59 |
| O=C(c1cccs1)N1c2ccccc2C=Cc2ccccc21 | 0.605 |
| COc1cccc(N2CCN(C3CCN(Cc4ccccc4)CC3)CC2)c1 | -0.0648 |
| CC1CC(C)CN(CCCNC(=O)Cn2ncn3cccc3c2=O)C1 (stereo not drawn) | -3.34 |
| CCn1nc(C)c(/N=C/c2c(C)nn(-c3ccc(F)cc3)c2O)c1C | 5.83 |
| COc1ccc2c(c1)c(C(C)=O)c(C)n2C | 1.67 |
| Cc1ccc(CS(=O)Cc2ccc(C(=O)NCc3ccc4c(c3)OCO4)o2)cc1 (stereo not drawn) | -1.28 |
| CCC(C)(c1nnnn1C(/C=C\c1ccc(Cl)cc1Cl)C(C)(C)C)N1CCOCC1 (stereo not drawn) | -5.38 |
| Cc1nc(NC(=O)c2ccc3c(c2)OCO3)sc1C | 0.751 |
